Measured values as given in the RNAGym collection of RNA variant scans (doi:10.1073/pnas.2313332121).
This sample is rich in variants without activity.

B1: TPR 5TU (parent)
chain: GGAUCUUCUCGAUCUAACAAAAAAGACAAAUCUGCCACAAAGCUUGAGAGCAUCUUCGGAUGCAGAGGCGGCAGCCUUCGGUGGCGCGAUAGCGCCAACGUUCUCAACUAUGACACGCAAAACGCGUGCUCCGUUGAAUGGAGUUUAUCAUG

Variants of: B1
Assay: polymerase ribozyme fitness, log enrichment relative to wild type (log ratio); higher = more active; in vitro selection for triplet polymerase activity
In short: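 Mutant libraries for each subunit of a heterodimeric triplet polymerase ribozyme were made by PCR and then transcribed. Each library underwent one round of in vitro selection in triplicate: annealing with a biotinylated primer, the partner subunit and triplets, frozen incubation at −7 °C, gel excision of extended constructs, streptavidin-bead capture and RT-PCR. Input and output libraries were Illumina-sequenced, and only genotypes with ≥10 input reads and ≥1 read per output were kept. Fitness is the logarithm, base 2, of genotype enrichment over wild-type enrichment, computed from inverse-variance-weighted replicate averages.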

| Variant | polymerase ribozyme fitness (log ratio) |
| --- | --- |
| GGAUCCUCUCGAUCUAACAAAAAAGACAAAUCUGCCACAAAGCUUGAGAGCAUCUUCGGAUGCAGAGGCGGCAGCCAUCGGUGGCGGGAUAGCGCCUCCGUUCUCAACUAUGACACGCAAAACGCGUGCUCCGUUGAAUGGAGUUUAUCAUG | ≤ -4.2 |
| GGAUCCUCUCGAUCUAACAAAAAAGACAAAUCUGCCACAAAGCUUGAGAGCAUCUUCGGAUGCAGAGGCGGCAGCCUUCGGAGGCGCGAUAGCGCCAAUGUUCUCAACUAUGACACGCAAAACGCGUGCUCCGUUUAAUGGAGUUUAUCAUG | -3.43 |
| GGAUCCUCUCGAUCUAACAAAAAAGACAAAUCUGCCACAAAGCUUGAGAGCAUCUUCGGAUGCAGAGGCGGCAGCCUUCGGUGGCGCGAAAGAGCCAAACUUAUCAACUAUGACAGGCAAAACGCGUGCUCCGUUGAAUGGAGUUUCUCAUG | ≤ -4.2 |
| GGAUCGUCUCGAUCUAACAAAAAAGACAAAUCUGCCACAAAGCUUGAGAGCAUCUUCGGAUGCAGAGGCGGCAGCCUUCGGUGGCGCGAUAGCGCCAACGUUCUCAACUAUGACACGCAAAACGCGUGCUCCGUUGAAUGGAGUUUAUCAUG | 0.0167 |
| GGAUCGUCUCGGUCUUACAAAAAAGACAAAUCUGCCACAAUGCUUGAGAGCAUCUUCGGAAGCAGAGGCGGCAGCCUUCGGUGUCGCGAUAGCGCCAACGUUCUCAACUAUGACACGCAAAACGCGGGCUCCGCUGAAUGGAGUUUCUCAUG | ≤ -4.2 |
| GGAUCGUCUCGUUCUAACAAAUAAGACAAAUCUGCCACAAAGCUUGAGAGCAUCUUCGGAUGCUGAGGCGGCAGCCUUCGGUGGCGCCAUAGCGUCAACGUUCUCAACUAUGACACGCAAAACGCGUGCUCCGUUGAAUGGAGUUUAUCAUG | ≤ -4.2 |
| GGAUCGUCUCGUUCUAACAAAAAAGGCAAAUCUGCCACAUAGCUUGAGAGCAUCUUCGGAUGCAGAGGCGGCAGCCUUCGGUGGCGCGAUAGUGCCAACGUUCUCAACUAUGACACGCAAAACUCGUGCUCCGUUGAAUGGAGUUUAUCAUG | ≤ -4.2 |
| GGAUCGUCUCGUUCGAACAAAAAAGACAAAUCUGCCACAAAGGUUGAGAGCUUCUUCAGAUGCAGAGGCGGCAGCCUUCGGUGGCGCGAUAGCGCCAACGUUCUCAACUAUGACACGCAAAACGCGUGCUCCGUUGAAUGGAGUUUAUCAUG | ≤ -4.2 |
| GGAUCGUCUCGAUCUCACAAAAAAUACAAAUCUGCCACCACCCUUGAGAGCAUCUUCGUAUGCAGAGGCGGCAGCCUACGGUGGCGCGAUAGCGCCAACGUUCUCAACUAUGACACGCAAAACGCGUGCUCCGUUGAAUGGAGUUUAUCGUG | ≤ -4.2 |
| GGAUCGUCUCGAUCUGACAAGAAAGACAAAUCUGCCACAAAGCUUGAGAGCAUCUUCGGAUGCAGAGGCGGCGGCCUUCGGGGUCGGGAUAGCGCCAACGUUCUCAUCUAUGACACGCCAAACGCGUGCUCCGUUGAAUGGAGUUUAUCAUG | ≤ -4.2 |
| GGAUCGUCUCGAUCUACCAAAACAGACAAAUCUGCGACAAAGCUUGAGAGCAUCUUGGGAUGCAGAGGCGGCAGCCUUAGAUGGCGCGAUAGCCCCCACGUUCUCAACUAUGACACGCCAAACGCGUGCUCCGUUGAAUGGAGUUUAUCAUG | ≤ -4.2 |
| GGAUCGUCUCGAUCUACCAAAAAAGACAAAUCUGCCACAAAGCUUGAGAGCAUUUUCGGAUGCAGAGGCGGUAACCCUCGGUGGCGCCAUAGCGCCAACGUUCUCAACUAUGACACGCAAAACGCGUGCUCCGUUGAAUGGAGUUUAUCAUG | ≤ -4.2 |
| GGAUCGUCUCGAUCUACCAAAAAAUACAAAUCUGCCACAAAGCUUGCGAGCAUCUUCGGAUGCAGAGGCGGCAGCCUUCGGUGCCGCGAUUGCGCCAACGUUCUCAACUAUGACACGCAAAACGCGUGCUCCGUUGAAUGGAGUUUAUCAUG | ≤ -4.2 |
| GGAUCGUCUCGAUCUAGCAAAAAAGUCAAAUCUGCCACAAAGCUUGAGAGCAUCUUCGCAUGCAGAGGCGGCAGCCUUCGGUGGCGCGAUAGCGCAAACGUUCUCAACUAUGACACGCAAAACGCCUGCUCCGUUGGAUGGAGUUUAUCAUG | ≤ -4.2 |
| GGAUCGUCUCGAUCUAGCAAAAAAGACAAAUCGGCCACAAAGCUUGAGAGCAUCUUCGGAUGCAGAGGCGGCAGCCUUCGGUGGCCCGUUAGCGCCAACGUUCUCAACUAUGACACGCACAACGCGUGCUCCGUUGAAUGAAGUUUAUCAUG | ≤ -4.2 |
| GGAUCGUCUCGAUCUAUCUAAAAAUACAGAUCUGCCACAAAGCUUGAGAGCAUCUUCGGAUGCAGAGGCGGCUGGCUUCGGUGGCGCCAUAACGCCAACGUUCUCAACUAUGACACGCAAAACGCGUGCUCCGUUGAAUGGAGCUUAUCAUG | ≤ -4.2 |
| GGAUCGUCUCGAUCUAUCAAAAAAGACAAAUCUGCCACAAAGCUUGAGAGCAUCUUCGGGUGCAGAGGCGGCAGCCUUCGGUGGCGCGAUAGAGCCAUCGUUCUCAACUAUGACACGCAAAACGCGUGCUCCGUUGAAUGGAGUUUAUCAUG | -1.75 |
| GGAUCGUCUCGAUCUAACGAAAAAGACAAUUCUGCCACAAAGCUUGAGAGCAUCUUCGGAUGCAGAGGCGGCAGCCUUCGGUGGCGCGAUAGCGCCAACGUUCUCAACUAUGACACGCGAAACGCGUGCUCCGUUGAAUGGAGUUUAUCAUG | ≤ -4.2 |
| GGAUCGUCUCGAUCUAACGAAAAAGACAAAUCUGCCAGAAAGCUUGAGAGCAUCUUCGGAUGCAGAGGCGGCAGCCUUCGGUGGCGCGAUAGCGCAAACGUUCUCUACUAUGACACGCAAAACGCGUGCUCCGUUGAAUGGAGUUUAUCAUG | -3.84 |
